Source: ChEMBL document CHEMBL4888484, “Replenishing the malaria drug discovery pipeline: Screening and hit evaluation of the MMV Hit Generation Library 1 (HGL1) against asexual blood stage Plasmodium falciparum ,using a nano luciferase reporter read-out” (2022)
Where “and” joins values, the source holds several entries; their conditions need not be identical. Equal values may be shown once. Hit rate of the full screen: of about 150,000 compounds, about 540 (0.36%) showed an effect of 50% or more. This is one part of the list.

System: Plasmodium falciparum
Test: Primary screen in NF54 nanoGlo assay, in single point, at 2uM, 72h; a lower Z score goes with more inhibition
Type: functional, Erythrocyte
Details: timepoint 72 hour

| Compound | % Inhibition [%] | Z score | % Inhibition (2 µM) |
| --- | --- | --- | --- |
| CCOc1ccc(C=C2CCCC3C2=NN(C(=O)c2ccc(F)cc2)C3c2ccc(OCC)cc2)cc1 (centres undefined) | 7 | -1.3 | – |
| CCOC(=O)C1=C(c2ccccc2)S/C(=C2/C(=S)C(C)(C)N(C(=O)c3ccccc3)c3ccc(OCC)cc32)S1 | – | – | -2% and -9% |
| CC(C#N)CN(C)S(=O)(=O)N1CCCC(c2nccn2C)C1 (centres undefined) | -10 | 1.5 | – |
| CCCOc1cccc2c(NC[C@@]3(CCO)CCOC3)ccnc12 | -28 | 3.3 | – |
| COCC(=O)N[C@@H](C)C(=O)NC1CCCCC1 | 0 | -0.07 | – |
| C1CC2CN(c3nc(C4CC4)ns3)CC2C1 (centres undefined) | -17 | 2.45 | – |
| CCCCc1cc(C[C@H]2CNCC[C@H]2CC(=O)N2CCN(c3ccccc3)CC2)no1 | -12 | 2.23 | – |
| Cc1cc(C)c(C#N)c(-c2ccc(C(=O)N3CC[C@@H](O)C3)cc2)n1 | -13 | 1.6 | – |
| CC(=O)NC1CCC(NC[C@H](C)Oc2cccc(F)c2)CC1 (some centres undefined) | 2 | -0.26 | – |
| N#Cc1cccnc1NCCOC1CCCCCC1 | -4 | 0.3 | – |
| O=C([C@H]1CCN(C2CCCCC2)C1)N1CCc2ccc(Cl)cc2C1 | -7 | 0.75 | – |
| CC(C)(C)OC(=O)N1CCn2c(nnc2C2CC2)CC1(C)C | 0 | -0.01 | – |
| Cc1ccccc1N1C2=CCCCCN2C[C@]1(O)c1ccc(Br)cc1 | 35 | -1.39 | – |
| COCC(=O)N1CCCC[C@H]1c1nnc2n1CCN(Cc1c(C)noc1C)CC2 | -5 | 0.82 | – |
| CN(Cc1cccc(-c2nnn[nH]2)c1)C(=O)Cn1cc2ccccc2n1 | 6 | -0.56 | – |
| Cc1nc(CN(C)C(=O)CCc2c(C)[nH]c(=O)c(C#N)c2C)cs1 | -13 | 2.02 | – |
| COc1cccc(O)c1S(=O)(=O)N1CCN(CC2CC2)CC1 | -7 | 1.32 | – |
| Cc1cc(C(=O)N2CCCC2)c2c(=O)n(CC(=O)NC3CCCC3)c(=O)n(-c3ccccc3)c2n1 | 1 | -0.14 | – |
| CS(=O)(=O)NCCOC1CCCCCC1 | -12 | 1.72 | – |
| CS(=O)(=O)c1ccc(Br)c(S(=O)(=O)N2CCC(n3ccnc3)CC2)c1 | -5 | 0.95 | – |
| Cc1cc(C(=O)N2CCC=C(c3cnn(C)c3)C2)ns1 | 4 | -0.72 | – |
| Cc1cccc(CNC(=O)NCCC(=O)N(C)C)c1Br | -8 | 0.85 | – |

| Compound | % Inhibition [%] | Z score | % Inhibition (2 µM) |
| --- | --- | --- | --- |
| CCc1nc(-c2ccc(N3CCN(C)CC3)cc2)n([C@H]2CCCC[C@@H]2O)n1 | -5 | 0.87 | – |
| C[C@H]1CCCN(C(C)(C)CNS(=O)(=O)c2cccc3c2OCCO3)C1 | -7 | 0.76 | – |
| COc1ccc(-n2nc(C)c3sc(N4CCN(C(=O)c5ccc(F)c(F)c5)CC4)nc32)cc1 | 1 | -0.13 | – |
| CC(C)c1cccc(S(=O)(=O)N2CCC(c3nncn3C)CC2)c1 | -2 | 0.36 | – |
| Cc1cnn(CCNC(=O)[C@@H]2C[C@H](C)CC(=O)N2)c1 | -1 | 0.12 | – |
| Cc1ccc(F)cc1NC(=O)N1CCC12CCC2 | 38 | -5.46 | – |
| Cc1nn(C)c(C)c1S(=O)(=O)N[C@H]1CCOc2ccc(F)cc21 | -10 | 0.95 | – |
| COc1ccc(C(=O)Nc2nc(-c3cccs3)c(NC(=O)c3ccc(Cl)cc3)s2)cc1 | -6 | 0.81 | – |
| O=C(CCN1CCN(c2ccc(O)cc2)CC1)Nc1ccccc1 | -12 | 1.48 | – |
| Cn1nccc1NC(=O)Cn1cc(-c2ccnc(N)n2)cn1 | -5 | 0.72 | – |
| C[C@H](Oc1ccc2c(c1)CCC2=O)c1ncc(C(C)(C)C)o1 | 4 | -0.44 | – |
| CCOC(=O)CN(C(=O)c1cnc(C)nc1C)C(C)(C)C | -6 | 0.74 | – |
| COCC1(CNC(=O)CN2CCN(C)C2=O)CCCC1 | -10 | 1.1 | – |
| COCCN(C)c1ccc(NCc2cc(C#N)cs2)nc1 | 15 | -2.43 | – |
| C[C@H]1C(=O)N(Cc2ccccc2)CCN1Cc1nccs1 | 6 | -1.05 | – |
| Cc1ccc([C@H]2CN(C(=O)c3cc(C)n[nH]3)C[C@@H]2N(C)C)cc1 | -3 | 0.44 | – |
| Cc1ncc(NC(=O)NC[C@@H]2Cc3ccccc3CO2)c(C2CC2)n1 | -7 | 1.16 | – |
| O=C(CC[C@@H]1NC(=O)N(Cc2cccc(F)c2)C1=O)N1CCc2ccccc2C1 | -10 | 1.25 | – |
| C[C@H]1c2ccsc2CCN1C(=O)c1csc2c1CCCC2 | -3 | 0.3 | – |
| c1ccc([C@H](CC2CCC2)NC2CCC3(CC2)OCCO3)cc1 | 34 | -3.87 | – |
| Cc1cc2c(cc1S(=O)(=O)N1CCC[C@H]1C(=O)N(Cc1ccccc1)C(C)C)OCC(=O)N2 | -9 | 1.31 | – |
| CCc1onc(C)c1NC(=O)c1ccc2[nH]cnc2c1 | 1 | -0.08 | – |

| Compound | % Inhibition [%] | Z score | % Inhibition (2 µM) |
| --- | --- | --- | --- |
| Cc1nn(CC(=O)Nc2cccc([C@@H](F)C(F)(F)F)c2)c(=O)n1C | -12 | 1.62 | – |
| CN(C)c1ncc(-c2nccn2C2CCCC2)cn1 | -14 | 1.64 | – |
| Cc1ccnc(-n2nccc2NC(=O)N2CCOC3(CCC3)C2)c1 | -11 | 1.57 | – |
| Cc1nn(C)c2nc(C(=O)NCc3ccc(F)cc3)cc(C3CC3)c12 | 28 | -3.22 | – |
| CC1(C(=O)NOC2CCCCO2)CC1(Cl)Cl (centres undefined) | -24 | 2.87 | – |
| O=C(NCCCN1CCOCC1)c1cc(NS(=O)(=O)c2ccc(F)cc2)ccn1 | -7 | 1.21 | – |
| Cc1nc(N)cc(NCCc2noc(C3CCC3)n2)n1 | 0 | -0.02 | – |
| CCOC(=O)N1CCN(c2nc(-c3cccc(OC)c3)no2)CC1 | -16 | 1.4 | – |
| C[C@@H]1COCCN1C(=O)Cc1ccc(Cl)cc1 | -7 | 0.91 | – |
| Cc1ccccc1OCC(=O)Nc1cc(-c2ccccc2F)nn1-c1ccccc1 | 6 | -0.84 | – |
| NC(=O)C1CCCCN1Cc1cc(Br)cc2c1OC(c1ccccc1)OC2 (centres undefined) | -11 | 1.62 | – |
| COc1ccccc1-c1n[nH]c(CC(C)C)c1NC(=O)C1CCCC1 | 3 | -0.52 | – |
| COC(=O)c1cc(F)cc(NC(=O)[C@@H]2CCCCO2)c1F | -14 | 2.18 | – |
| O=C(c1cc2c(s1)CCCCC2)N1CCCn2ncnc21 | -17 | 3.37 | – |
| C=CCNC(=O)c1c(NC(=O)c2ccccc2C)n(-c2ccccc2OC)c2nc3ccccc3nc12 | 7 | -0.81 | – |
| O=C(NC1CCCCC1)c1cnn2c(-c3cccc(Cl)c3)ccnc12 | -15 | 1.39 | – |
| CN(CC(C)(CO)CO)C(=O)c1c(Cl)cccc1Cl | -9 | 0.95 | – |
| CCCc1cnc(C)nc1N[C@H]1CCC[C@@H](CO)C1 | 1 | -0.1 | – |
| CN(C)c1cc(NC(=O)[C@H]2CCCOCC2)ccn1 | 1 | -0.2 | – |
| CN(C)Cc1nnc([C@H]2C[C@@H](NC(=O)c3cncc(F)c3)C2)n1C | -22 | 2.24 | – |
| CCN(CCC(=O)N1CCN(C)CC1)C(=O)c1cc2n(n1)CCCN(Cc1ccc(F)cc1)C2=O | -1 | 0.06 | – |
| CC(C)n1cnnc1CN(C)c1cc([C@H]2CCOC2)nc(N2CC(O)C2)n1 | -1 | 0.11 | – |

| Compound | % Inhibition [%] | Z score | % Inhibition (2 µM) |
| --- | --- | --- | --- |
| Cc1ccc(N(C)S(=O)(=O)c2c(C)sc(C)c2-c2cc(C(F)(F)F)on2)cc1C | -7 | 1.18 | – |
| COCc1noc([C@H](C)N2CCOc3cc(OC)ccc3C2)n1 | 11 | -1.32 | – |
| O=C(CCc1cn[nH]c1)N1CCO[C@@H](CCCc2ccccc2)C1 | -20 | 2.56 | – |
| CCCn1c(=O)c(C)nc2cc(-c3noc(-c4ccc(C)c(NC(=O)c5ccco5)c4)n3)ccc21 | 5 | -0.53 | – |
| Cc1c(-c2cncc(C(F)(F)F)c2)cnn1C | -13 | 1.38 | – |
| O=S(=O)(NCCc1cnoc1)N1CC2CCC1C2 (centres undefined) | -1 | 0.24 | – |
| Cc1c(NC(=O)COC(=O)c2ccc(-c3ccccc3)cc2)c(=O)n(-c2ccccc2)n1C | -1 | 0.18 | – |
| CC(C)c1ccc(NC(=O)C2CC3CC(N)C3C2)cn1 (centres undefined) | -9 | 1.76 | – |
| CC1(C)C[C@H](NC(=O)c2conc2C(C)(C)N)c2ccccc2O1 | -7 | 1.25 | – |
| O=C(CNC(=O)c1ccc(-c2cscn2)cc1)Nc1cccnc1 | -14 | 2.08 | – |
| Cc1noc(-c2cccnc2NCCN2CCOCC2(C)C)n1 | -9 | 0.96 | – |
| COc1ccc(C)cc1NC(=O)[C@@H]1CCCN1C(=O)C1CC(=O)C1 | -12 | 1.18 | – |
| CCN(CC(=O)NCC(F)(F)F)c1cccc(O)c1 | 4 | -0.73 | – |
| C=CCNC(=O)N(C)Cc1cnc(CC)s1 | -5 | 0.96 | – |
| CCCCc1nc(C)c(C(=O)N2CCNC(=O)C2)s1 | 1 | -0.12 | – |
| COC(=O)c1cc(C)nc(N[C@@H](CO)C(C)(C)C)n1 | 22 | -2.82 | – |
| O=C(c1ccc2oc(-c3ccc(C(F)(F)F)cc3)nc2c1)N1CCOCC1 | -2 | 0.27 | – |
| O=C(NC[C@H]1C[C@@H]1C(F)(F)F)N1CC2(CCCO2)C1 | 2 | -0.31 | – |
| Cc1n[nH]c(C)c1[C@@H](N)C(=O)NCc1cc(-c2ccccc2Cl)no1 | -12 | 1.81 | – |
